From PubChem BioAssay AID588692 (Broad Institute, 2011)
Hit rate of the full screen: of about 360,000 compounds, about 830 (0.23%) were called active. This list was built around the results that the source calls inconclusive (neither active nor inactive); the mix of calls is not that of the screen.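 The calls were made as follows: active = mean luciferase reporter signal, scaled so untreated is 0 and the glycosylation-blocking control 100, at or above a set limit in every replicate; inconclusive = mean reaches the limit but not every replicate does; inactive = mean below the limit.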

experiment: increase of ERlucT glycosylation luciferase signal, primary screen, N-linked glycosylation inhibitor project, D54 ERlucT cells, luminescence, set 2 (AID 588692); settings: 24 h, at 12.5 µM, stronger effect = higher value, percent of 100 nM tunicamycin response;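 also: luciferase carries N-glycosylation sites so blocking glycosylation raises the light; 0% = median of neutral control wells and 100% = median of 100 nM tunicamycin wells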

Row | SMILES | reporter increase
1 | Cc1ccc(-c2nn3c(C)nnc3c3ccccc23)cc1S(=O)(=O)N(C)CCO | active: 26.7%
2 | Cc1ccc(/C=N/NC(=O)CCn2nc(C)cc2C)c(C)c1 | inconclusive: 25.6%
3 | COC(=O)c1ccc(C(=O)NC2CCCc3c2cnn3-c2ccccc2F)nc1 (centres undefined) | inconclusive: 27.9%
4 | OCCN1CCN(C(=S)Nc2cccc(C(F)(F)F)c2)CC1 | inconclusive: 25.2%
5 | CCC1=Nc2cc(C(=O)NCCCOC)ccc2Sc2ccccc21 | inconclusive: 27.2%
6 | CC(=O)c1cccc(Nc2c3c(nc4ccccc24)CCC3)c1 | active: 51.5%
7 | CN1C/C(=C\c2ccc(N3CCOCC3)cc2)C(=O)/C(=C/c2ccc(N3CCOCC3)cc2)C1 | inconclusive: 27.8%
8 | CCCCCCC(=O)N(O)C1CC(=O)N(c2ccc(Cl)cc2)C1=O (centres undefined) | active: 60.5%
9 | Cc1noc(C)c1NC(=O)N(C)C[C@H]1Oc2ccc(NC(=O)CCC(F)(F)F)cc2C(=O)N([C@H](C)CO)C[C@@H]1C | inactive: 1.67%
10 | COC(=O)c1ccc(C(=O)OC)c(NC(=S)N2CCC(C)CC2)c1 | inactive: 2.02%
11 | CCCCCCCCCCCCCCCC[n+]1ccc(/C=N/O)cc1 | active: 87.1%
12 | C=CCOc1ccc(C2C(C#N)=C(N)N(Nc3ccccc3)C3=C2C(=O)CCC3)cc1OC (centres undefined) | inconclusive: 25%
13 | CCCCCC[n+]1ccccc1/C=C/c1ccc(N(C)C)cc1 | inconclusive: 25.6%
14 | CCN(CC)Cc1cc(Nc2c3ccccc3nc3c4ccccc4n(C)c23)cc(CN(CC)CC)c1O | inconclusive: 32.2%
15 | CCCN(CCC)C(=S)NC(=O)c1ccc(-c2ccccc2)cc1 | inactive: 14.5%
16 | COc1cc(OC)c(C(=O)Nc2ccc3ccccc3c2)cc1OC | inactive: -1.94%
17 | COc1cc2c(cc1OC)C(=O)N1[C@H]3c4ccccc4OC[C@@H]3[C@H](c3ccccc3)[C@]1(C)C(=O)N2 | active: 41.1%
18 | Cc1occc1C(=O)Nc1c(Cl)cccc1Cl | inactive: 1.33%
19 | COc1ccccc1NC(=S)N/N=C/c1cccc(C)c1 | inconclusive: 26.7%
20 | COc1cc(C(=O)Nc2ccc3c(c2)CCN3C(C)=O)cc(OC)c1OC | inconclusive: 28.6%
21 | N=C1C=CC(=C(c2ccc(N)cc2)c2ccc(N)cc2)C=C1 | inconclusive: 26.3%
22 | Cc1ccc(-c2nc(NCCCN(C)C)c3ccccc3n2)cc1 | inconclusive: 28.7%
23 | O=C(NC1CCCC(C(F)(F)F)C1)c1ccc([N+](=O)[O-])o1 (centres undefined) | active: 29.1%
24 | COc1cc2c(C(=O)N3CCN(c4cccc(Cl)c4)CC3)cn(C)c(=O)c2cc1OC | inconclusive: 25.5%
